Results as given in publication PMC5693993.
Results are given in words; binding and its absence hold for the method and conditions named. Binding seen in cells or lysates may run through a third protein. Some binding calls cover weakened binding; strength is not graded here.

T1: Unc93B1 overexpressed in a macrophage cell line (UniProt Q8VCW4)
T1 sequence: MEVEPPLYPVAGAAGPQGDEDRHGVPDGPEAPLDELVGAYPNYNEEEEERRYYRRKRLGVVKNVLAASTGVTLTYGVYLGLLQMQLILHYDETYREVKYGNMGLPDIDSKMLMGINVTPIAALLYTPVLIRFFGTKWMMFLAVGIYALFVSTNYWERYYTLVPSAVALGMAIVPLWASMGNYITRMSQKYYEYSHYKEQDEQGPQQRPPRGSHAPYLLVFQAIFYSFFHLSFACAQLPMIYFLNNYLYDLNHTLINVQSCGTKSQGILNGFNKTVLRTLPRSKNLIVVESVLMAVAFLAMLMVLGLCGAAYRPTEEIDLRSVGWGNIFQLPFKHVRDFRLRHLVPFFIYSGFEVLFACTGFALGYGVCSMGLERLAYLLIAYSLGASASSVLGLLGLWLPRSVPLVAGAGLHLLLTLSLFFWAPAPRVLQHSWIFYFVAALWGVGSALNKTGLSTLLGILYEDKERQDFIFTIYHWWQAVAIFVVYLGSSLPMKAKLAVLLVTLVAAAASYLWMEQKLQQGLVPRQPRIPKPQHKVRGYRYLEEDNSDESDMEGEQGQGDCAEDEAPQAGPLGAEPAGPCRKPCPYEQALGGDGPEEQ

T2: TLR9 (mouse (endogenous in BM-pDCs)) (UniProt Q9EQU3)
T2 sequence: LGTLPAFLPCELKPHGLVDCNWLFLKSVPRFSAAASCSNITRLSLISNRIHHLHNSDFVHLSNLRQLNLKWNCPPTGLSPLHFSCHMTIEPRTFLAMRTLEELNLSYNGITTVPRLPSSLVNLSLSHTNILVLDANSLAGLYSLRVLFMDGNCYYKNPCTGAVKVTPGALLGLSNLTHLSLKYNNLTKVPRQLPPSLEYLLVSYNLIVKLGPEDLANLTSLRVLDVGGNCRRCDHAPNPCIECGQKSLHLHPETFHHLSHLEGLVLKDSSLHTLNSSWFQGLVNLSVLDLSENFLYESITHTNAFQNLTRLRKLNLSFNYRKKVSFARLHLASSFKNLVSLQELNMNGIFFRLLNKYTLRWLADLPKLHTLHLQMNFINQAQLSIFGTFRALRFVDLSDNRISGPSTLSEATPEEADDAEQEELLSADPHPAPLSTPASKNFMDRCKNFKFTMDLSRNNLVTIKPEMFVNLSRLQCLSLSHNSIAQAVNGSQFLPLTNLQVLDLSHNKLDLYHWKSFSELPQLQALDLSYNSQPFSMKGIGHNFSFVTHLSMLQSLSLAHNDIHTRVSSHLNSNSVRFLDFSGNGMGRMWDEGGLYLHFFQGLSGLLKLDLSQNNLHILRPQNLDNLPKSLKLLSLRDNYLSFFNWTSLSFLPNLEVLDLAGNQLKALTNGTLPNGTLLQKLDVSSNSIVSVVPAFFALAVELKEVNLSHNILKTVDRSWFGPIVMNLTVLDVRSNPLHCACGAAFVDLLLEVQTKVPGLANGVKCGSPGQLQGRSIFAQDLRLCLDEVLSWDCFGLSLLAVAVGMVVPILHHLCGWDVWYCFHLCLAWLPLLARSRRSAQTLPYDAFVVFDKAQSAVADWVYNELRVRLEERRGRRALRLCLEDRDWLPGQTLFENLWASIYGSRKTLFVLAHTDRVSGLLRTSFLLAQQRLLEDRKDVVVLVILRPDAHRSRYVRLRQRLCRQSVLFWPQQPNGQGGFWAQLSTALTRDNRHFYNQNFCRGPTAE

T3: toll-like receptor 7 (TLR7) (mouse (endogenous in spleen cells, cDCs, BM-pDCs)) (UniProt P58681)
T3 sequence: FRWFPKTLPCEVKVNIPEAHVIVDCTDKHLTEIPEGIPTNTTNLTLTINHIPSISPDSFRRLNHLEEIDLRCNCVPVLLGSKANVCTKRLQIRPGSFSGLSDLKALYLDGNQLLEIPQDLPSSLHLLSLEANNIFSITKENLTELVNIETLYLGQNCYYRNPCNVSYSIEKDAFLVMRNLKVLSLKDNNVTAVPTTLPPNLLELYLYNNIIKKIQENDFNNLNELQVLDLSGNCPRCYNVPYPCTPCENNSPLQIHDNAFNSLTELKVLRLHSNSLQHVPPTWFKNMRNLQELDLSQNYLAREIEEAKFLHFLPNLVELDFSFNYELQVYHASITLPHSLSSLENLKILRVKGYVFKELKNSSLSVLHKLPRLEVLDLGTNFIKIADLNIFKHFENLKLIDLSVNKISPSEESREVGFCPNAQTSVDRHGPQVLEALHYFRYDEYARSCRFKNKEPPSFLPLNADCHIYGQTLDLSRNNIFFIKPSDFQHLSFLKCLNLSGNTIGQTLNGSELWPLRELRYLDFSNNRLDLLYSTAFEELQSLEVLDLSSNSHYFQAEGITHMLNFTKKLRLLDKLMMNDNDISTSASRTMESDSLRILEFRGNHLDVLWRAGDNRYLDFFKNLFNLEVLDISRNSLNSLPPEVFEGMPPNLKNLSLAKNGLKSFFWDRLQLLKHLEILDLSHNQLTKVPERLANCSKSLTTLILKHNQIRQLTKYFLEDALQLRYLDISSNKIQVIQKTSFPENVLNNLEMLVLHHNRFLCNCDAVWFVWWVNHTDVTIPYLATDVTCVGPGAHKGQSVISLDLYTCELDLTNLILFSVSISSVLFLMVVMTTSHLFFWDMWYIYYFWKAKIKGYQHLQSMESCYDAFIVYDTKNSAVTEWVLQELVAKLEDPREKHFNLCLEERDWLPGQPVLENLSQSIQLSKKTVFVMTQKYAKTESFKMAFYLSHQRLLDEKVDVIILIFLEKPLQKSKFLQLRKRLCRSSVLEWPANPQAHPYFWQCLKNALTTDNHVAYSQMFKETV

T4: TNF receptor-associated factor 6 (TRAF6) (mouse (endogenous in BM-pDCs)), P70196
T4 chain: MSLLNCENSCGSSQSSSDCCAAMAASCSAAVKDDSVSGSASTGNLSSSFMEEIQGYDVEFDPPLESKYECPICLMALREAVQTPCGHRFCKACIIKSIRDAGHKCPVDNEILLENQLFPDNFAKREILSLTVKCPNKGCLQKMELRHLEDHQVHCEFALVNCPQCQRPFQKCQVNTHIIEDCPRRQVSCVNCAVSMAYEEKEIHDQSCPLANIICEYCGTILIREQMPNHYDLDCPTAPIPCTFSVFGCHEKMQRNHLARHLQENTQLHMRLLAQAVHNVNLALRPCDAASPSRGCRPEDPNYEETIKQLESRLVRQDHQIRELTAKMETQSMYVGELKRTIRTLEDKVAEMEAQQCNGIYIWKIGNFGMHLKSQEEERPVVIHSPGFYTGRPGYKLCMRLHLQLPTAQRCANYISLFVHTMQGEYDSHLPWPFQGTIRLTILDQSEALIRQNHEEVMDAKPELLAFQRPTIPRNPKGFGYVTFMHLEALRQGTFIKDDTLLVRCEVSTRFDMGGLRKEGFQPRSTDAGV

T5: TNF receptor-associated factor 6 (TRAF6) (mouse (endogenous in BM-pDCs)) (UniProt P70196)
T5 sequence: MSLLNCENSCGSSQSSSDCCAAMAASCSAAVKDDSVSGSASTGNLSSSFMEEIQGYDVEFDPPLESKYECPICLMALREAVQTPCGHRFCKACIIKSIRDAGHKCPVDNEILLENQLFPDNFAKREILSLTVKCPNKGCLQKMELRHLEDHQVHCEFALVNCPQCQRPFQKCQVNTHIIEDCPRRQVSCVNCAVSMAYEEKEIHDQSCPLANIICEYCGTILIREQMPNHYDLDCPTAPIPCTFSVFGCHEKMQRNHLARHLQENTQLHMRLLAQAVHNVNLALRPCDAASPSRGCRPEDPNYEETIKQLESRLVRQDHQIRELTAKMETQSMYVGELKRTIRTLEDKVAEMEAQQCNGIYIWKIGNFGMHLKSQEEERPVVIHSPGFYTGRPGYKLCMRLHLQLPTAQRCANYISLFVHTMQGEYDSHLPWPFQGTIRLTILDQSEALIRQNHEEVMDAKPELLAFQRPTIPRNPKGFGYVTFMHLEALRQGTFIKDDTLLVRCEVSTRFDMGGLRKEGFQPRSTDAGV


Columns and labels:
[1] = target: T1, Unc93B1 overexpressed in a macrophage cell line; experiment: co-IP; immunoprecipitation of Unc93B1 from a macrophage cell line transduced to overexpress it; immunoblot
[2] = target: T2, TLR9 (mouse (endogenous in BM-pDCs)); experiment: co-IP; endogenous TLR7 or TLR9 immunoprecipitated from total spleen cells, cDCs or BM-pDCs; immunoblot of TLR7, TLR9, Unc93b1 and Arl8a/b; isotype-matched control Ab
[3] = target: T3, toll-like receptor 7 (TLR7) (mouse (endogenous in spleen cells, cDCs, BM-pDCs)); experiment: as above
[4] = target: T4, TNF receptor-associated factor 6 …; experiment: co-IP; WT BM-pDCs stimulated with 25 μg/mL polyU for the indicated times, lysed, immunoprecipitation with Ab against TRAF6 or goat IgG control; immunoblot; conditions: remark: other sources report otherwise
[5] = target: T5, TNF receptor-associated factor 6 (TRAF6) (mouse (endogenous in BM-pDCs)); experiment: co-IP; Arl8b Gt/Gt BM-pDCs stimulated with 25 μg/mL polyU for the indicated times, lysed, immunoprecipitation with Ab against TRAF6 or goat IgG control; immunoblot

Row | Binder | binding [1] | binding [2] | binding [3] | binding [4] | binding [5]
1 | Arl8b (protein, UniProt Q9CQW2 1-186) MLALISRLLDWFRSLFWKEEMELTLVGLQYSGKTTFVNVIASGQFSEDMIPTVGFNMRKVTKGNVTIKIWDIGGQPRFRSMWERYCRGVNAIVYMIDAADREKIEASRNELHNLLDKPQLQGIPVLVLGNKRDLPNALDEKQLIEKMNLSAIQDREICCYSISCKEKDNIDITLQWLIQHSKSRRS | binds | binds weakly | binds | – | –
2 | TRAF3, Q60803 1-567 (protein) MESSKKMDAAGTLQPNPPLKLQPDRGAGSVLVPEQGGYKEKFVKTVEDKYKCEKCRLVLCNPKQTECGHRFCESCMAALLSSSSPKCTACQESIIKDKVFKDNCCKREILALQVYCRNEGRGCAEQLTLGHLLVHLKNECQFEELPCLRADCKEKVLRKDLRDHVEKACKYREATCSHCKSQVPMIKLQKHEDTDCPCVVVSCPHKCSVQTLLRSELSAHLSECVNAPSTCSFKRYGCVFQGTNQQIKAHEASSAVQHVNLLKEWSNSLEKKVSLLQNESVEKNKSIQSLHNQICSFEIEIERQKEMLRNNESKILHLQRVIDSQAEKLKELDKEIRPFRQNWEEADSMKSSVESLQNRVTELESVDKSAGQAARNTGLLESQLSRHDQMLSVHDIRLADMDLRFQVLETASYNGVLIWKIRDYKRRKQEAVMGKTLSLYSQPFYTGYFGYKMCARVYLNGDGMGKGTHLSLFFVIMRGEYDALLPWPFKQKVTLMLMDQGSSRRHLGDAFKPDPNSSSFKKPTGEMNIASGCPVFVAQTVLENGTYIKDDTIFIKVIVDTSDLPDP | – | – | – | binds | –
3 | Arl8a (protein, UniProt Q8VEH3 1-186) MIALFNKLLDWFKALFWKEEMELTLVGLQYSGKTTFVNVIASGQFNEDMIPTVGFNMRKITKGNVTIKLWDIGGQPRFRSMWERYCRGVSAIVYMVDAADQEKIEASKNELHNLLDKPQLQGIPVLVLGNKRDLAGALDEKELIEKMNLSAIQDREICCYSISCKEKDNIDITLQWLIQHSKSRRS | binds | binds weakly | binds | – | –
4 | Unc93B1 (endogenous) (protein, UniProt Q8VCW4 1-598) MEVEPPLYPVAGAAGPQGDEDRHGVPDGPEAPLDELVGAYPNYNEEEEERRYYRRKRLGVVKNVLAASTGVTLTYGVYLGLLQMQLILHYDETYREVKYGNMGLPDIDSKMLMGINVTPIAALLYTPVLIRFFGTKWMMFLAVGIYALFVSTNYWERYYTLVPSAVALGMAIVPLWASMGNYITRMSQKYYEYSHYKEQDEQGPQQRPPRGSHAPYLLVFQAIFYSFFHLSFACAQLPMIYFLNNYLYDLNHTLINVQSCGTKSQGILNGFNKTVLRTLPRSKNLIVVESVLMAVAFLAMLMVLGLCGAAYRPTEEIDLRSVGWGNIFQLPFKHVRDFRLRHLVPFFIYSGFEVLFACTGFALGYGVCSMGLERLAYLLIAYSLGASASSVLGLLGLWLPRSVPLVAGAGLHLLLTLSLFFWAPAPRVLQHSWIFYFVAALWGVGSALNKTGLSTLLGILYEDKERQDFIFTIYHWWQAVAIFVVYLGSSLPMKAKLAVLLVTLVAAAASYLWMEQKLQQGLVPRQPRIPKPQHKVRGYRYLEEDNSDESDMEGEQGQGDCAEDEAPQAGPLGAEPAGPCRKPCPYEQALGGDGPEEQ | – | – | binds | – | –
5 | TRAF3 (protein, UniProt Q60803 1-567) MESSKKMDAAGTLQPNPPLKLQPDRGAGSVLVPEQGGYKEKFVKTVEDKYKCEKCRLVLCNPKQTECGHRFCESCMAALLSSSSPKCTACQESIIKDKVFKDNCCKREILALQVYCRNEGRGCAEQLTLGHLLVHLKNECQFEELPCLRADCKEKVLRKDLRDHVEKACKYREATCSHCKSQVPMIKLQKHEDTDCPCVVVSCPHKCSVQTLLRSELSAHLSECVNAPSTCSFKRYGCVFQGTNQQIKAHEASSAVQHVNLLKEWSNSLEKKVSLLQNESVEKNKSIQSLHNQICSFEIEIERQKEMLRNNESKILHLQRVIDSQAEKLKELDKEIRPFRQNWEEADSMKSSVESLQNRVTELESVDKSAGQAARNTGLLESQLSRHDQMLSVHDIRLADMDLRFQVLETASYNGVLIWKIRDYKRRKQEAVMGKTLSLYSQPFYTGYFGYKMCARVYLNGDGMGKGTHLSLFFVIMRGEYDALLPWPFKQKVTLMLMDQGSSRRHLGDAFKPDPNSSSFKKPTGEMNIASGCPVFVAQTVLENGTYIKDDTIFIKVIVDTSDLPDP | – | – | – | – | no binding (condition: in Arl8b Gt/Gt pDCs)
